Measurements: the supplement of paper PMC11417369
The list shows a part of the results.

System: PF3D7_0420300 AP2 domain 1 (GST-tagged)
Experiment: gcPBM binding intensity (ln(normalized median fluorescence intensity)); higher = stronger DNA binding
Procedure, shortened: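 Binding intensity values are the highest Masliner-normalised natural-log median intensity among replicate spots of either probe orientation. The binding step lasted 1 h in 1× PBS with 1% milk, 0.2 mg/ml BSA, 0.5% salmon testes DNA and 0.03% Triton X-100, using GST-tagged P. falciparum DNA-binding domains expressed in E. coli on an Agilent 4 × 180k array of primer-extended double-stranded 36-bp intergenic genomic probes plus negative controls. Alexa488 anti-GST antibody and a 488 nm scan detected bound protein.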

Sequence | gcPBM binding intensity (ln)
TAAACACATTATATATGTACATAATAAAAAAAAAAA [XGTACX_site7907] | 9.24
TATATAATATAATGTAGTACATGTTTTATTTTTTAC [XGTACX_site7735] | 9.38
ATTTATTTATTTTCATGTACATATGTAAATCAATAA [XGTACX_site3886] | 9.01
ATAAAATACAAAGGGACACACATATGAGTCTACAAA [CACACA_site3092] | 9.64
ATATTAACTTTTATTACACACTCTCAACTTTTATTT [CACACA_site6176] | 9.72
TCACAAATGTATTATACACACAAGTTTTCTTTAATA [CACACA_site4107] | 9.44
ATTATAAATAAATATTGTACTTATATGATCTATTTG [XGTACX_site3820] | 9.13
AGAATAATATAATAAAGTACAAACCTATCTAACTAC [XGTACX_site5477] | 9.69
CCTTTCACATATAATACATGCATTATTATATATGAA [TGCATGCA_site287] | 9.14
GGATATATTATATGTACACACACATATAAGGGATTA [CACACA_site7884] | 9.7
ATTGCATTTGTAGATAATACAATATGGATTGTTATA [CACACA_negctrl_site1749] | 9.08
AAAAATTTTATATTCACACACATATTTATATTTATA [CACACA_site6439] | 9.51
ATATATAAAAAAGCTAGTACACAAAAATATATAATG [XGTACX_site3001] | 9.77
TTCTTTTCTCTTTTAATCATATTATATAAATGAATA [CACACA_negctrl_site820] | 9.14
AAAAAAATTTATTAAAGTACTAGATAATCATATAAA [XGTACX_site1455] | 9.03
TTATACAACAAGAAAATTATAAAATGTAACATATAT [GTGCAC_negctrl_site406] | 9.37
ATATTAATATAATGTGCATGTTCAATGATCTTTTTA [TGCATGCA_site22] | 9.15
ATAATTATTAATATAGTGCATTGGCATAATAATATA [GTGCAC_site9810] | 9.21
TATTTTTTAACACAACGTACATATAAAAAATATTTA [XGTACX_site6025] | 8.98
TACAAATATATATGCACACACATATATGTATATGTG [CACACA_site3075] | 9.63
TTAGATATAATATATACACACCAACGAACGAAGAAA [CACACA_site4763] | 9.82
AGTAAATAACACAAATATGAATGAAAAAAAAAATAT [GTGCAC_negctrl_site235] | 9.73

Sequence | gcPBM binding intensity (ln)
TGTGCGGAAATAAGTGCACACATAGATATCTGTATT [CACACA_site5935] | 9.37
CAACTTATTAAAAGTCGTACAAATGGGAAGAAGGAA [XGTACX_site6325] | 9.32
ATATATATATAGTACGCACACATAGTTGTACATTAA [CACACA_site2787] | 9.38
CGTATGAGTAAATACACACCCACGTATATATATAAA [CACACA_site5728] | 9.29
GAGTAAAAATTAAAATGTACATATTATATATATTTA [XGTACX_site1319] | 9.09
ATGAATGTCCCAAGATGTACAATTATATATAACACA [XGTACX_site4702] | 9.17
AAATCCTTATTTTTTTGTACGTAATATTTTATATGG [XGTACX_site1530] | 9.35
TAATAAATAAGACACACACACATATATATATATTAT [CACACA_site1389] | 10.2
TTTTAAGATATAAATTAATACTTATATATATAGATA [CACACA_negctrl_site22] | 8.88
ACATTAAAAAAAAAATGTACATAAATATTTTTCCTT [XGTACX_site4361] | 9.01
AATTTTATTCATTGAGCACACAAAATAAATTATCAA [CACACA_site9079] | 9.08
ATCTTTTATATAAAATGTACAGAGTTTGAAAGAATA [XGTACX_site8826] | 8.95
GTATTACAACGACACACACACCTATATATCATAGTA [CACACA_site7877] | 9.96
TATATACACATATATAAACACACAAAAAAAAAAAAA [CACACA_site8626] | 9.6
ATACAAATTGTTTAAAGTACAAATTACACCTCTTAA [XGTACX_site6888] | 9.12
CATACAGACATACATACACACATACATACAGACATA [CACACA_site6996] | 9.73
TGTAAATATATATATACACACACACCGAAGCAATAG [CACACA_site8960] | 10.1
TTTTTTTTTTTTTAAACATGCATATTAATATTATAT [TGCATGCA_site820] | 9
TAAAAAGGAAGACACACACACACATATATAAATATA [CACACA_site7657] | 10.2
GTATATCACACATTTGCATGTTGTCAATAGTTTATC [TGCATGCA_site134] | 9.43
GTGCAAAATATTTTTACACACAAATTCTTACAACAG [CACACA_site7556] | 9.38
ATATCTATGTTTATCTCGAATAACTTAAAAAATTAT [CACACA_negctrl_site1131] | 9
